From the antibiotic and cytotoxicity screens of Wong et al. (2023) come the findings set out here.

The list shows a part of the results.

In the first experiment the test system is HepG2. Put plainly: cytotoxicity call (relative viability < 0.9). Conditions: 10 µM.
With `O=C(C[C@H]1CC[C@H]2[C@@H](COC[C@@H](O)CN2C(=O)Nc2ccc(Cl)cc2)O1)NCCc1ccncc1`, the cytotoxicity call was “active”.

On to `C[C@H](CO)N1C[C@H](C)[C@@H](CN(C)C(=O)Cc2ccccc2)OCCCC[C@H](C)Oc2ccc(NC(=O)C3CCCCC3)cc2C1=O`, for which the cytotoxicity call is “inactive”. The same measure, in the same setting: to `COCC(=O)N1C[C@@H](C)[C@@H](OC)CN(C)C(=O)c2ccc(NC(=O)Nc3cccc(F)c3)cc2OC[C@@H]1C` belongs “inactive”.

Take `C[C@@H]1CN([C@@H](C)CO)C(=O)c2cc(NS(=O)(=O)c3cn(C)cn3)ccc2O[C@H]1CN(C)S(=O)(=O)c1ccc(F)cc1`: the cytotoxicity call is “inactive”. Regarding `CNC[C@H]1OCCCC[C@@H](C)Oc2ccc(NC(=O)Nc3cccc4ccccc34)cc2C(=O)N([C@@H](C)CO)C[C@H]1C`, the cytotoxicity call is “inactive”. Take `N[C@@H](CO)c1ccccc1`: the cytotoxicity call is “inactive”. On the same count and under the same terms, to `O=C(C[C@H]1C=C[C@H](NS(=O)(=O)c2ccccc2)[C@@H](CO)O1)NCc1ccncn1` belongs “inactive”. The same measure, in the same setting: as for `C[C@@H]1CCCCO[C@H](CN(C)Cc2ccc(C(=O)O)cc2)[C@@H](C)CN([C@H](C)CO)C(=O)c2cc(NC(=O)CCC(F)(F)F)ccc2O1`, the entry is “inactive”; as for `C[C@@H]1CCCCO[C@H](CN(C)C(=O)C2CCCCC2)[C@@H](C)CN([C@H](C)CO)C(=O)c2cc(NC(=O)Nc3ccccc3)ccc2O1`, “inactive”; as for `C[C@@H]1COC(=O)N1`, “inactive”.

For the molecule `N[C@H](C(=O)O)[C@H](O)c1ccc(O)c(O)c1`, the cytotoxicity call is “inactive”. Turning to `CN(C)CC#Cc1cncc(C(=O)NN)c1`, the cytotoxicity call is “inactive”. The same measure, in the same setting: as for `C[C@H](CO)N1C[C@H](C)[C@@H](CN(C)C(=O)Cc2ccccc2)OCCCC[C@H](C)Oc2ccc(NC(=O)CCC(F)(F)F)cc2C1=O`, the entry is “inactive”; as for `CCS(=O)(=O)N1CCCn2c(nc(Cn3cncn3)cc2=O)C1`, “inactive”. Same read-out and setting: to `C[C@@H]1CCCCO[C@@H](CN(C)C(=O)Nc2ccc(F)cc2)[C@H](C)CN([C@@H](C)CO)C(=O)c2cc(NC(=O)Nc3ccc(F)cc3)ccc2O1` belongs “inactive”. Same read-out and setting: as for `CN1CCN(C(=O)[C@H]2[C@H](CO)[C@H]3Cn4c(ccc(-c5cncnc5)c4=O)[C@H]3N2CC2CC2)CC1`, the entry is “inactive”; as for `COc1ccc(CN(C)C[C@@H]2OCCCC[C@@H](C)Oc3ccc(NC(=O)Nc4cccc5ccccc45)cc3C(=O)N([C@H](C)CO)C[C@@H]2C)cc1`, “inactive”; as for `CCCC(=O)N1CC[C@]2(CC1)CN([C@@H](CO)c1c2c2ccc(cc2n1C)OC)C(=O)CN1CCOCC1`, “inactive”. For `COc1ccc(NC(=O)Nc2cccc3c2O[C@@H](CN(C)C(=O)Nc2cccc4ccccc24)[C@@H](C)CN([C@@H](C)CO)C3=O)cc1`, the cytotoxicity call is “inactive”. Same read-out and setting: as for `O=C(N/N=C/[C@H](O)[C@@H](O)[C@@H](O)[C@H](O)C(=O)O)c1ccccn1`, the entry is “inactive”; as for `Cc1ccc(S(=O)(=O)Nc2ccc3c(c2)C(=O)N([C@H](C)CO)C[C@H](C)[C@@H](CN(C)C(=O)c2ccccc2)OCCCC[C@@H](C)O3)cc1`, “inactive”. The same measure, in the same setting: as for `C[C@@H]1CCCCO[C@@H](CN(C)C(=O)C2CCCCC2)[C@H](C)CN([C@H](C)CO)C(=O)c2cc(NC(=O)Nc3ccccc3)ccc2O1`, the entry is “inactive”; as for `C[C@@H]1CCCCO[C@@H](CN(C)S(=O)(=O)c2ccc(F)cc2)[C@@H](C)CN([C@H](C)CO)C(=O)c2cc(NS(C)(=O)=O)ccc2O1`, “inactive”. Same read-out and setting: to `O=C1CC(c2ccc(O)cc2)Oc2cc(O)cc(O)c21` (centres undefined) belongs “inactive”; to `O=C(O)COCC(=O)Nc1cnccn1`, “inactive”. On to `COc1ccc(NC(=O)N(C)C[C@@H]2Oc3ccc(NC(=O)Nc4ccc(C(F)(F)F)cc4)cc3C(=O)N([C@@H](C)CO)C[C@H]2C)cc1`, for which the cytotoxicity call was “inactive”. Same read-out and setting: as for `COc1ccccc1[C@@H](NC(=O)C1CCN(CCn2cnc3c2c(=O)n(C)c(=O)n3C)CC1)c1ccccn1`, the entry is “inactive”. Still for that read-out and setting: to `C[C@H](CO)N1C[C@H](C)[C@H](CN(C)C(=O)Nc2ccc(F)cc2)Oc2ccc(NC(=O)CCN3CCOCC3)cc2C1=O` belongs “inactive”. Still for that read-out and setting: to `COCC#Cc1ccc2c(c1)O[C@H](CN(C)Cc1ccc3c(c1)OCO3)[C@H](C)CN([C@H](C)CO)S2(=O)=O` belongs “inactive”.

The subject of another experiment is S. aureus RN4220. Put plainly: growth inhibition call (relative growth <= 0.2). The settings on record: 50 µM.
With `Cc1noc(C)c1NC(=O)N(C)C[C@H]1Oc2ccc(NC(=O)Cn3cnnn3)cc2CC(=O)N([C@@H](C)CO)C[C@@H]1C`, the growth inhibition call is “inactive”.

On to `C[C@H]1CN([C@@H](C)CO)C(=O)Cc2cc(NC(=O)Cn3cnnn3)ccc2O[C@H]1CN(C)S(=O)(=O)c1ccc(Cl)cc1`, for which the growth inhibition call is “inactive”.

In the case of `COc1ccc(NC(=O)Nc2ccc3c(c2)C(=O)N([C@@H](C)CO)C[C@H](C)[C@@H](CN(C)Cc2ccncc2)OCCCC[C@@H](C)O3)cc1`, the growth inhibition call was “inactive”. `COC(=O)[C@H](Cc1ccccc1)N1CC2=C[C@@H](C3CC3)n3c(=O)n(C)c(=O)n3[C@H]2[C@@H]1[C@@H](O)Cc1ccccc1`: the growth inhibition call was “inactive”. `CC=Cc1ccc2n(c1=O)C[C@H]1[C@H](CO)[C@@H](C(=O)NCC)[C@@H]2N1S(=O)(=O)c1cn(C)cn1`: the growth inhibition call was “inactive”. With `COc1ccc(C#Cc2cnc3c(c2)C(=O)N([C@H](C)CO)C[C@H](C)[C@H](CN(C)C(=O)Nc2c(C)noc2C)O3)cc1OC`, the growth inhibition call was “inactive”. Same read-out and setting: as for `O=C(C[C@@H]1CC[C@H]2[C@@H](COC[C@H](O)CN2S(=O)(=O)c2cccc(F)c2)O1)NCc1ccncn1`, the entry is “inactive”; as for `C1CN(C2CCOCC2)CCN1`, “inactive”. The same measure, in the same setting: as for `C[C@@H]1CN([C@H](C)CO)C(=O)Cc2cc(NC(=O)Nc3ccc(C(F)(F)F)cc3)ccc2O[C@@H]1CN(C)C(=O)Nc1ccc(F)cc1`, the entry is “inactive”. On the same count and under the same terms, as for `Cc1ccc(S(=O)(=O)N(C)C[C@@H]2Oc3ccc(NC(=O)CCN4CCOCC4)cc3CC(=O)N([C@H](C)CO)C[C@@H]2C)cc1`, the entry is “inactive”; as for `Cc1cc(C(=O)Nc2cccc3c2O[C@H](CN(C)Cc2ccc4c(c2)OCO4)[C@H](C)CN([C@@H](C)CO)C3=O)n(C)n1`, “inactive”; as for `O=C(C[C@H]1CC[C@H]2[C@@H](COC[C@@H](O)CN2C(=O)Nc2ccc(Cl)cc2)O1)NCCc1ccncc1`, “inactive”. As for `C[C@H](CO)N1C[C@H](C)[C@@H](CN(C)C(=O)Cc2ccccc2)OCCCC[C@H](C)Oc2ccc(NC(=O)C3CCCCC3)cc2C1=O`, the growth inhibition call was “inactive”.

Consider `COCC(=O)N1C[C@@H](C)[C@@H](OC)CN(C)C(=O)c2ccc(NC(=O)Nc3cccc(F)c3)cc2OC[C@@H]1C`, for which the growth inhibition call is “inactive”.

`C[C@@H]1CN([C@@H](C)CO)C(=O)c2cc(NS(=O)(=O)c3cn(C)cn3)ccc2O[C@H]1CN(C)S(=O)(=O)c1ccc(F)cc1`: the growth inhibition call was “inactive”.

On to `CNC[C@H]1OCCCC[C@@H](C)Oc2ccc(NC(=O)Nc3cccc4ccccc34)cc2C(=O)N([C@@H](C)CO)C[C@H]1C`, for which the growth inhibition call was “inactive”. Still for that read-out and setting: to `N[C@@H](CO)c1ccccc1` belongs “inactive”. For `O=C(C[C@H]1C=C[C@H](NS(=O)(=O)c2ccccc2)[C@@H](CO)O1)NCc1ccncn1`, the growth inhibition call is “inactive”.

For the molecule `C[C@@H]1CCCCO[C@H](CN(C)Cc2ccc(C(=O)O)cc2)[C@@H](C)CN([C@H](C)CO)C(=O)c2cc(NC(=O)CCC(F)(F)F)ccc2O1`, the growth inhibition call was “inactive”. On the same count and under the same terms, to `C[C@@H]1CCCCO[C@H](CN(C)C(=O)C2CCCCC2)[C@@H](C)CN([C@H](C)CO)C(=O)c2cc(NC(=O)Nc3ccccc3)ccc2O1` belongs “inactive”; to `C[C@@H]1COC(=O)N1`, “inactive”; to `N[C@H](C(=O)O)[C@H](O)c1ccc(O)c(O)c1`, “inactive”. On the same count and under the same terms, as for `CN(C)CC#Cc1cncc(C(=O)NN)c1`, the entry is “inactive”; as for `C[C@H](CO)N1C[C@H](C)[C@@H](CN(C)C(=O)Cc2ccccc2)OCCCC[C@H](C)Oc2ccc(NC(=O)CCC(F)(F)F)cc2C1=O`, “inactive”. On the same count and under the same terms, to `CCS(=O)(=O)N1CCCn2c(nc(Cn3cncn3)cc2=O)C1` belongs “inactive”. Take `C[C@@H]1CCCCO[C@@H](CN(C)C(=O)Nc2ccc(F)cc2)[C@H](C)CN([C@@H](C)CO)C(=O)c2cc(NC(=O)Nc3ccc(F)cc3)ccc2O1`: the growth inhibition call is “inactive”. On the same count and under the same terms, as for `CN1CCN(C(=O)[C@H]2[C@H](CO)[C@H]3Cn4c(ccc(-c5cncnc5)c4=O)[C@H]3N2CC2CC2)CC1`, the entry is “inactive”; as for `COc1ccc(CN(C)C[C@@H]2OCCCC[C@@H](C)Oc3ccc(NC(=O)Nc4cccc5ccccc45)cc3C(=O)N([C@H](C)CO)C[C@@H]2C)cc1`, “inactive”. Same read-out and setting: to `CCCC(=O)N1CC[C@]2(CC1)CN([C@@H](CO)c1c2c2ccc(cc2n1C)OC)C(=O)CN1CCOCC1` belongs “inactive”; to `COc1ccc(NC(=O)Nc2cccc3c2O[C@@H](CN(C)C(=O)Nc2cccc4ccccc24)[C@@H](C)CN([C@@H](C)CO)C3=O)cc1`, “inactive”; to `O=C(N/N=C/[C@H](O)[C@@H](O)[C@@H](O)[C@H](O)C(=O)O)c1ccccn1`, “inactive”. `Cc1ccc(S(=O)(=O)Nc2ccc3c(c2)C(=O)N([C@H](C)CO)C[C@H](C)[C@@H](CN(C)C(=O)c2ccccc2)OCCCC[C@@H](C)O3)cc1`: the growth inhibition call was “inactive”.

As for `C[C@@H]1CCCCO[C@@H](CN(C)C(=O)C2CCCCC2)[C@H](C)CN([C@H](C)CO)C(=O)c2cc(NC(=O)Nc3ccccc3)ccc2O1`, the growth inhibition call is “inactive”. Same read-out and setting: as for `C[C@@H]1CCCCO[C@@H](CN(C)S(=O)(=O)c2ccc(F)cc2)[C@@H](C)CN([C@H](C)CO)C(=O)c2cc(NS(C)(=O)=O)ccc2O1`, the entry is “inactive”; as for `O=C1CC(c2ccc(O)cc2)Oc2cc(O)cc(O)c21` (centres undefined), “inactive”; as for `O=C(O)COCC(=O)Nc1cnccn1`, “inactive”. Regarding `COc1ccc(NC(=O)N(C)C[C@@H]2Oc3ccc(NC(=O)Nc4ccc(C(F)(F)F)cc4)cc3C(=O)N([C@@H](C)CO)C[C@H]2C)cc1`, the growth inhibition call was “inactive”. Same read-out and setting: to `COc1ccccc1[C@@H](NC(=O)C1CCN(CCn2cnc3c2c(=O)n(C)c(=O)n3C)CC1)c1ccccn1` belongs “inactive”; to `C[C@H](CO)N1C[C@H](C)[C@H](CN(C)C(=O)Nc2ccc(F)cc2)Oc2ccc(NC(=O)CCN3CCOCC3)cc2C1=O`, “inactive”; to `COCC#Cc1ccc2c(c1)O[C@H](CN(C)Cc1ccc3c(c1)OCO3)[C@H](C)CN([C@H](C)CO)S2(=O)=O`, “inactive”.
